Laboratory results from PubChem BioAssay AID463173 (ICCB-Longwood Screening Facility, Harvard Medical School, 2010).
Out of some 52,000 compounds screened, about 1,700 (3.3%) were called active. Rule as the data show it: active = survival mostly below about 52% (no sharp cut-off); inactive = mostly above about 56%. The list shows a part of the results.

System: Wild type
Assay: S. aureus survival, RN4220 and DeltatarO strains – OD600, teichoic acid synthesis inhibitors, primary screen (AID 463173)
Conditions: S. aureus RN4220 wild type/DeltatarO growth, OD600, 18 h, active compounds read low, screened at 18.75 µg/mL (by protocol)

SMILES	survival
Cc1ccccc1CN1C(=O)c2ccccc2S(=O)c2ccc(C(=O)NCc3ccco3)cc21 (stereo not given)	inactive: 96%
CCN(C(=O)CCS(=O)(=O)c1ccc2c(c1)oc(=O)n2C)c1ccc(OC)cc1	inactive: 70%
Clc1ccccc1C(c1nnnn1Cc1ccco1)N1CCN(Cc2ccco2)CC1 (stereo not given)	inactive: 111%
Cn1c(=O)c2ccccc2n(CC(N)=O)c1=O	inactive: 109%
CCS(=O)(=O)N1CCC2(CC1)OC(=O)C(C)=C2C(=O)NCc1cccc(Cl)c1	inactive: 49%
O=S(=O)(c1ccc(Br)cc1)c1nc(-c2cccs2)oc1SCc1ccc(F)cc1	inactive: 67%
Cc1ccc(-c2nc(CN(C)C)cc(CN(C)C)c2O)cc1	inactive: 121%
Cc1ccccc1NS(=O)(=O)c1ccc2c(c1)NC(=O)CCS2	inactive: 57%
Cc1ccc(C)c(N2CCN(C(=O)C3CCN(C(=O)c4cc5sccc5n4C)CC3)CC2)c1	inactive: 54%
C=CCN1C(=O)C2C(C(=O)NC3CCCCC3C)C3(C)C=CC2(O3)C1C(=O)NC(C)(C)C (stereo not given)	inactive: 105%
COc1cc2c(cc1NC(=O)COc1ccc(Br)cc1C)oc1ccccc12	inactive: 141%
CC(C)CCNC(=O)CCC(=O)N1Cc2ccccc2Oc2ncccc21	inactive: 65%
CCn1c(SCC(=O)Nc2ccccc2)nc2c([nH]c3ccccc32)c1=O	inactive: 81%
COc1ccc(NC(=O)CCCSc2nc(-c3ccco3)cc(C(F)(F)F)n2)cc1	inactive: 99%
Cc1cc2c(cc1S(=O)(=O)NCc1ccccc1)OCC(=O)N2	inactive: 92%
COc1ccccc1C(=O)Nc1c(C(=O)N2CCN(c3ccccc3F)CC2)oc2ccccc12	inactive: 101%
Cc1ccc(CNC(=O)c2ccc3c(c2)NC(=O)C(CS(=O)(=O)Cc2ccc(F)cc2)N3)cc1 (stereo not given)	inactive: 68%
CCN(CC)S(=O)(=O)c1ccc(-c2nnc(SCC(=O)N3CCCC3)n2CC)cc1	inactive: 110%
CN(C)c1cccc(C(=O)Nc2nc3ccc(S(=O)(=O)NC(C)(C)C)cc3s2)c1	inactive: 60%
O=C(c1ccccc1)c1ccc2nc(N3CCN(c4ccccc4)CC3)c3nncn3c2c1	inactive: 84%
Cc1nc2ccc(S(=O)(=O)CCC(=O)Nc3ccc(C(C)C)cc3)cc2s1	inactive: 87%
CC(C)(C)c1ccc(C(=O)Nc2ccc(C(=O)OCc3cc(=O)n4ccsc4n3)cc2)cc1	inactive: 80%
CCc1ccc(C(c2c(C)[nH][nH]c2=O)C(C#N)C#N)cc1 (stereo not given)	inactive: 91%

SMILES	survival
CCC1CCCCN1CCCNC(=O)c1cn(CC)c2ccc(S(=O)(=O)N(C)C3CCCCC3)cc2c1=O (stereo not given)	inactive: 87%
Cc1cc(C)cc(Nc2nc3ccccc3nc2-n2nc(C)cc2C)c1	active: 8%
CCOC(=O)N1CCc2c(sc3c2c(=O)n(Cc2ccccc2)c(=O)n3CC(=O)Nc2cccc(C)c2)C1	inactive: 84%
COC(=O)c1sc(-c2ccccc2)cc1NC(=O)Nc1ccccc1Cl	active: 5%
Cc1ccc(CNC(=O)C2(c3cccs3)CCOCC2)cc1	inactive: 69%
Cn1c(=O)n(C)c2cc(/C=N/NC(N)=S)ccc21	inactive: 92%
COc1ccc(-c2cn3c(n2)sc2cc(C(=O)Nc4c(C)cccc4C)ccc23)cc1	inactive: 83%
Cc1cc2cc3c(cc2nc1SCC(=O)N1CCCC1)OCCO3	inactive: 105%
CCCCC(=O)Nc1cc(-c2nc3cccnc3s2)ccc1C	inactive: 72%
CN(C)N=Nc1ccc(Oc2ccccc2)cc1	inactive: 115%
CCc1ccc(NC(=O)c2cc3c(COC(C)=O)cnc(C)c3oc2=O)cc1	inactive: 120%
CCOc1ccc(NC(=O)CSc2ncnc3c2sc2ccccc23)cc1	inactive: 71%
CN(C)S(=O)(=O)c1ccc(C(=O)Nc2c(C(=O)Nc3ccc(F)cc3)oc3ccccc23)cc1	inactive: 88%
COc1ccc(C(=O)n2nc(-c3ccc(Cl)cc3)nc2NCc2ccco2)cc1	inactive: 99%
Cn1c(=O)oc2cc(S(=O)(=O)N3CCCC(C(=O)NCc4ccccc4Cl)C3)ccc21 (stereo not given)	inactive: 96%
COc1ccc(NC(=O)Cn2c(=O)oc3cc(Cl)ccc32)c(OC)c1	inactive: 63%
CNC(=O)C1CCC(Cn2c(=O)c3sccc3n(CC(=O)NCc3ccc(C)cc3)c2=O)CC1 (stereo not given)	inactive: 73%
Cc1cc(C)c2c(n1)SCC(=O)N2CC(=O)Nc1ccccc1C	inactive: 77%
Cc1ccc(C)c(NC(=O)CCCn2c(C)c3cnn(-c4ccccc4)c(=O)c3c2C)c1	inactive: 83%
CCc1ccc(NC(=O)CSc2nc(C)c(C(=O)Nc3ccc(Cl)cc3)c(-c3ccc(OC)cc3)c2C#N)cc1	inactive: 94%
Nc1ccc(N2CCOCC2)c2nonc12	inactive: 106%
Cc1cc(=O)oc2cc(OCC(=O)N(C)C)c(Cl)cc12	inactive: 109%
O=C(CSc1nc2c([nH]c3ccccc32)c(=O)n1-c1ccc(F)cc1)NCC1CCCO1 (stereo not given)	inactive: 70%

SMILES	survival
Cc1ccc(C2C(=O)N(C3CCCCCC3)CC(=O)N2C(C)C)cc1 (stereo not given)	inactive: 71%
Cc1ccccc1C(=O)Nc1sc2c(c1C(=O)O)CCC(C(C)(C)C)C2 (stereo not given)	active: 6%
O=C(CSc1nc2c([nH]c3ccccc32)c(=O)n1-c1ccccc1)N1CCCc2ccccc21	inactive: 128%
COc1ccc(NC(=O)Cn2nc3c(cc2=O)CCCC3)cc1Cl	inactive: 95%
CCCCc1nn2c(=O)cc(CN(CC)c3ccccc3)nc2s1	inactive: 89%
COc1cccc(C(=O)c2cn(CC(=O)Nc3cc(Cl)c(OC)cc3OC)c3nc(C)ccc3c2=O)c1	inactive: 136%
O=C(CSc1ccccc1)N1CCc2c([nH]c3ccccc23)C1c1ccc(Cl)cc1 (stereo not given)	inactive: 64%
Cc1cccc(NC(=O)c2cc(CN3CCOCC3)on2)c1C	inactive: 68%
Cc1cccc(S(=O)(=O)c2cn(C)c3cc(N4CCCCCC4)c(F)cc3c2=O)c1	inactive: 55%
O=C(NCc1ccc(Cl)cc1)c1cc2ccc3cccnc3c2[nH]1	inactive: 49%
COc1ccccc1N1CCN(S(=O)(=O)c2ccc(-c3ccno3)cc2OC)CC1	inactive: 82%
Cc1ccc(NC(=O)NCCOCCn2c(=O)oc3ccccc32)c(C)c1	inactive: 88%
CC(C)c1ccc(Cc2cn3cc(-c4cc5ccccc5oc4=O)nc3s2)cc1	inactive: 64%
COc1cccc(-n2c(SCC(=O)Nc3cccc(C)c3)nc3c([nH]c4ccccc43)c2=O)c1	inactive: 80%
Cc1nc(N2CCCC2)ncc1C(=O)NCc1ccc(Cl)cc1	inactive: 80%
CC1=C(c2ccc(F)cc2)S(=O)(=O)N=C1N1CCC(C(=O)NCCc2ccccc2)CC1	inactive: 77%
COc1ccc(OC)c(C2=NS(=O)(=O)N(C)C(C(=O)Nc3ccc(C(C)=O)cc3)=C2)c1	inactive: 81%
Cc1ccccc1C(=O)NC1CCN(CC(=O)NC2CCCCC2)CC1	inactive: 98%
O=C(Cn1nnc(-c2cccnc2)n1)N(c1ccccc1)c1ccccc1	inactive: 101%
COc1cc(CN(C(=O)COc2ccc(Cl)cc2)c2ccccn2)cc(OC)c1OC	inactive: 104%
Cc1ccc(C)c(NC(=O)C2CCN(c3ncnc4c3nc3n4CCCCC3)CC2)c1	inactive: 81%
CC(C)(C)c1ccc(C(=O)NNc2ncnc3c2cnn3-c2ccc(Cl)cc2)cc1	inactive: 94%
Cc1cccc(C)c1NC(=O)NCCCN1CCN(c2ccccc2)CC1	inactive: 159%

SMILES	survival
CCc1ccc2occ(CC(=O)Nc3nnc(C)s3)c2c1	inactive: 98%
CCNC(=O)C1CCN(c2nc3ccccc3nc2C(F)(F)F)CC1	inactive: 148%
O=C(CSc1nc2c([nH]c3ccccc32)c(=O)n1-c1ccccc1)NCc1ccc(F)cc1	inactive: 87%
CCc1ccccc1NC(=O)CC(C)S(=O)(=O)c1ccc2c(c1)NC(=O)CO2 (stereo not given)	inactive: 59%
COc1ccccc1-c1cc(-c2ccc(O)cc2)nc(N)c1C#N	inactive: 69%
CC(=O)c1nn(-c2ccc(OC(F)(F)F)cc2)nc1Nc1ccc(Cl)cc1	inactive: 88%
CCOc1ccc(NC(=O)Cn2cc(S(=O)(=O)c3ccc(C)cc3)c(=O)c3cc(F)ccc32)cc1	inactive: 64%
O=C(CN1C(=O)C2(SCC(=O)N2c2ccccc2)c2ccccc21)Nc1ccccc1C(F)(F)F (stereo not given)	inactive: 140%
COc1ccc(C(=O)c2cnc3ccc(C)cc3c2S(=O)(=O)c2ccccc2)cc1	inactive: 79%
COc1ccc(S(=O)(=O)N2CCC(C(=O)NC(C)c3ccccc3)CC2)cc1 (stereo not given)	inactive: 83%
CCOC(=O)C1CCCN(C(=O)Cn2c(=O)cc(C)c3c(C)nn(C)c32)C1 (stereo not given)	inactive: 72%
Cc1ccc(CN2C(=O)C(O)(CC(=O)c3ccc(C)cc3)c3ccccc32)cc1 (stereo not given)	inactive: 66%
O=c1sc2ccccc2c2nc[nH]c12	inactive: 98%
C#CCN1CCOCC1	inactive: 111%
O=C(Nc1ccc(Br)cc1)c1cc2nc(-c3ccccc3)cc(-c3ccccc3)n2n1	inactive: 74%
COc1ccc(CCNc2oc(-c3ccc(C)cc3)nc2C#N)cc1OC	inactive: 106%
CCOc1ccc(-c2nnc(SCC(=O)NCc3ccc(Cl)cc3)o2)cc1	inactive: 98%
Cc1ccc(NC(=O)c2cc(S(=O)(=O)NC3CCCCCC3)ccc2F)cc1F	inactive: 79%
S=C(NCc1ccc2c(c1)OCO2)Nc1ccccc1	inactive: 108%
COc1ccc2[nH]cc(CCN=C(NC(=O)c3cccc(Cl)c3)Nc3nc(C)cc(C)n3)c2c1	inactive: 60%
C/C(=N\OC(=O)c1nn(C)cc1Br)c1ccc(Cl)cc1Cl	inactive: 110%
